# Data as given in the supplement of paper PMC12067230.
# The data scatter; read single values as rough.
# Experiment: amyloid nucleation score relative to library mode (yeast Sup35 reporter selection) (log enrichment difference); higher = more amyloid nucleation; sequences are the first 22 residues of the Bri2 peptide extended by up to 12 random residues
# Settings: random library (experiment): 1;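 active = nucleation score significantly above 0 at FDR 0.05; inactive = not significantly above 0 or absent from output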
# 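Also: [psi-pin-] Saccharomyces cerevisiae expressing SupN fusions, induced by 100 µM Cu2SO4, selected 7 d at 30 °C without adenine and uracil, scored by deep sequencing of output versus input.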
row,Sequence,amyloid nucleation score
1,EASNCFAIRHFENKFAVETLICRSWCVFDVTWNF,inactive
2,EASNCFAIRHFENKFAVETLICRSWGVGSSRPHW,inactive
3,EASNCFAIRHFENKFAVETLICRSWMVSYAWSL,inactive
4,EASNCFAIRHFENKFAVETLICRSWWSWGDRRLA,inactive
5,EASNCFAIRHFENKFAVETLICRSYDCYVPLSSE,inactive
6,EASNCFAIRHFENKFAVETLICRSYEGRLVSGRW,4.68
7,EASNCFAIRHFENKFAVETLICRSYGRIVEWARS,inactive
8,EASNCFAIRHFENKFAVETLICRT,inactive
9,EASNCFAIRHFENKFAVETLICRTACSWRWECDS,3.08
10,EASNCFAIRHFENKFAVETLICRTCRCIQDRSVA,5.14
11,EASNCFAIRHFENKFAVETLICRTCVLAVAARRL,inactive
12,EASNCFAIRHFENKFAVETLICRTDARWSYGRLG,inactive
13,EASNCFAIRHFENKFAVETLICRTGLLSRPVGFG,-0.0479
14,EASNCFAIRHFENKFAVETLICRTGSARSVGDQV,inactive
15,EASNCFAIRHFENKFAVETLICRTGSIAQQRVAM,inactive
16,EASNCFAIRHFENKFAVETLICRTLSGHEQYRCS,inactive
17,EASNCFAIRHFENKFAVETLICRTLVFRQCGVCV,inactive
18,EASNCFAIRHFENKFAVETLICRTMDYK,inactive
19,EASNCFAIRHFENKFAVETLICRTMQLQGADQRG,inactive

row,Sequence,amyloid nucleation score
1,EASNCFAIRHFENKFAVETLICRTNEHAHTWVRL,1.78
2,EASNCFAIRHFENKFAVETLICRTQVVDCRYAWA,1.88
3,EASNCFAIRHFENKFAVETLICRTRAFTWVQMHE,2.66
4,EASNCFAIRHFENKFAVETLICRTRECHWVVSVI,inactive
5,EASNCFAIRHFENKFAVETLICRTRPVLTFIYVW,inactive
6,EASNCFAIRHFENKFAVETLICRTRSNLSMKVRS,inactive
7,EASNCFAIRHFENKFAVETLICRTSETRACVVNK,inactive
8,EASNCFAIRHFENKFAVETLICRTSSVMQTIA,inactive
9,EASNCFAIRHFENKFAVETLICRTTLAGLWVTTM,inactive
10,EASNCFAIRHFENKFAVETLICRTVDTGVDRWLA,inactive
11,EASNCFAIRHFENKFAVETLICRTVFTSIEDCAA,inactive
12,EASNCFAIRHFENKFAVETLICRTVHRKVSIGP,inactive
13,EASNCFAIRHFENKFAVETLICRTVLGAYQVLPA,inactive
14,EASNCFAIRHFENKFAVETLICRTWLL,inactive
15,EASNCFAIRHFENKFAVETLICRTWLNPNWYCKK,inactive
16,EASNCFAIRHFENKFAVETLICRTYDESQSARIG,inactive
17,EASNCFAIRHFENKFAVETLICRTYDLFRVVRWP,inactive
18,EASNCFAIRHFENKFAVETLICRTYGDPILSGLR,inactive
19,EASNCFAIRHFENKFAVETLICRVAGATVDARRW,inactive

row,Sequence,amyloid nucleation score
1,EASNCFAIRHFENKFAVETLICRVASDCAWPEGD,inactive
2,EASNCFAIRHFENKFAVETLICRVCDRIY,inactive
3,EASNCFAIRHFENKFAVETLICRVCSIILCQPSC,5.72
4,EASNCFAIRHFENKFAVETLICRVCVYPVDISSG,inactive
5,EASNCFAIRHFENKFAVETLICRVDGAVGEGAPG,inactive
6,EASNCFAIRHFENKFAVETLICRVDRSCKWSCDW,3.16
7,EASNCFAIRHFENKFAVETLICRVECPPGRMVYQ,-0.0194
8,EASNCFAIRHFENKFAVETLICRVEGNPNEKQPV,5.37
9,EASNCFAIRHFENKFAVETLICRVETVSRGWCTW,2.41
10,EASNCFAIRHFENKFAVETLICRVFESIMHHGLS,inactive
11,EASNCFAIRHFENKFAVETLICRVFSVLL,inactive
12,EASNCFAIRHFENKFAVETLICRVFWWLRVASGD,inactive
13,EASNCFAIRHFENKFAVETLICRVGSLGRHKSRP,inactive
14,EASNCFAIRHFENKFAVETLICRVGTGGGAEGRK,inactive
15,EASNCFAIRHFENKFAVETLICRVHPQSTRGRLG,0.655
16,EASNCFAIRHFENKFAVETLICRVIC,inactive
17,EASNCFAIRHFENKFAVETLICRVICRF,inactive
18,EASNCFAIRHFENKFAVETLICRVIILSF,inactive
19,EASNCFAIRHFENKFAVETLICRVILKYPRNPNW,inactive

# Same assay, conditions: random library (experiment): 2
row,Sequence,amyloid nucleation score
1,EASNCFAIRHFENKFAVETLICRSWLFGHNTFFR,-0.157
2,EASNCFAIRHFENKFAVETLICRSYKNWDGCEVQ,inactive
3,EASNCFAIRHFENKFAVETLICRTAIRAEHCVKR,inactive
4,EASNCFAIRHFENKFAVETLICRTCCGLEFEVEE,3.51
5,EASNCFAIRHFENKFAVETLICRTCIIVACCDGN,5.55
6,EASNCFAIRHFENKFAVETLICRTCMM,inactive
7,EASNCFAIRHFENKFAVETLICRTDLWTLCKRQR,inactive
8,EASNCFAIRHFENKFAVETLICRTFCHK,1.97
9,EASNCFAIRHFENKFAVETLICRTGGDSGGIVRC,0
10,EASNCFAIRHFENKFAVETLICRTLYYHMYWTLW,inactive
11,EASNCFAIRHFENKFAVETLICRTQCLSR,inactive
12,EASNCFAIRHFENKFAVETLICRTRRCPLGRHTG,inactive
13,EASNCFAIRHFENKFAVETLICRTRRVLTGKKLS,inactive
14,EASNCFAIRHFENKFAVETLICRTS,inactive
15,EASNCFAIRHFENKFAVETLICRTVSYF,inactive
16,EASNCFAIRHFENKFAVETLICRVCEDTLLLPYS,inactive
17,EASNCFAIRHFENKFAVETLICRVCTSGYVSNMQ,5.4
18,EASNCFAIRHFENKFAVETLICRVEDFR,inactive
19,EASNCFAIRHFENKFAVETLICRVFIRLFLRMSG,inactive
20,EASNCFAIRHFENKFAVETLICRVG,inactive
21,EASNCFAIRHFENKFAVETLICRVGDRVKELFLR,inactive
22,EASNCFAIRHFENKFAVETLICRVGWPHFFMSHA,inactive
23,EASNCFAIRHFENKFAVETLICRVHLAFRWYRGR,inactive

# Same assay, conditions: random library (experiment): 3
row,Sequence,amyloid nucleation score
1,EASNCFAIRHFENKFAVETLICRSWCIRCRVWKL,inactive
2,EASNCFAIRHFENKFAVETLICRSYALT,inactive
3,EASNCFAIRHFENKFAVETLICRSYCTGEVLILE,inactive
4,EASNCFAIRHFENKFAVETLICRTC,1.41
5,EASNCFAIRHFENKFAVETLICRTCVDPRREKDL,inactive
6,EASNCFAIRHFENKFAVETLICRTDQVCLVTSFC,inactive
7,EASNCFAIRHFENKFAVETLICRTDRGKYSDLRD,inactive
8,EASNCFAIRHFENKFAVETLICRTEATESQGK,inactive
9,EASNCFAIRHFENKFAVETLICRTECNWLFKVSS,inactive
10,EASNCFAIRHFENKFAVETLICRTGRHLPTVSVK,inactive
11,EASNCFAIRHFENKFAVETLICRTGRPWLRITNV,inactive
12,EASNCFAIRHFENKFAVETLICRTKQWAMTTADR,inactive
13,EASNCFAIRHFENKFAVETLICRTLAEMNACSWS,3.7
14,EASNCFAIRHFENKFAVETLICRTLVLWCTLGHG,inactive
15,EASNCFAIRHFENKFAVETLICRTMMGCW,inactive
16,EASNCFAIRHFENKFAVETLICRTNRRAHDNRWR,4.94
17,EASNCFAIRHFENKFAVETLICRTNVFAMLSYTD,inactive
18,EASNCFAIRHFENKFAVETLICRTQSRRSGDMHD,inactive
19,EASNCFAIRHFENKFAVETLICRTRCPVLFVLYD,0.0994

row,Sequence,amyloid nucleation score
1,EASNCFAIRHFENKFAVETLICRTRNVLPMRDLV,-0.103
2,EASNCFAIRHFENKFAVETLICRTRTVVLTSFYN,inactive
3,EASNCFAIRHFENKFAVETLICRTSLFQVKGEGR,inactive
4,EASNCFAIRHFENKFAVETLICRTSLSSGVILHA,inactive
5,EASNCFAIRHFENKFAVETLICRTVSAGMYMVFR,inactive
6,EASNCFAIRHFENKFAVETLICRTWCYASCTHGR,1.64
7,EASNCFAIRHFENKFAVETLICRTWT,inactive
8,EASNCFAIRHFENKFAVETLICRTWVGGCCDMVR,inactive
9,EASNCFAIRHFENKFAVETLICRVASWIVGTRGL,0.632
10,EASNCFAIRHFENKFAVETLICRVCVSNGKRCPA,inactive
11,EASNCFAIRHFENKFAVETLICRVETDWRWTVWD,4.35
12,EASNCFAIRHFENKFAVETLICRVGDGVAVNWMQ,inactive
13,EASNCFAIRHFENKFAVETLICRVGLPAEVGLFR,inactive
14,EASNCFAIRHFENKFAVETLICRVGTAWRSWGYG,inactive
15,EASNCFAIRHFENKFAVETLICRVHSYVRSRSQR,inactive
16,EASNCFAIRHFENKFAVETLICRVI,inactive
17,EASNCFAIRHFENKFAVETLICRVIMYVGGRGLE,inactive
18,EASNCFAIRHFENKFAVETLICRVKFSMFMIEIW,inactive
